Results on five molecules are retold here after article PMC8138007.

Chains of the proteins cited; added tags and fusions are not shown. Lines headed by an entry give the natural chain unless they say otherwise; changes in a name come on top. A line that says so, or that is headed by a name, gives the form on record, which may keep a tag or linker.
UniProt P14618: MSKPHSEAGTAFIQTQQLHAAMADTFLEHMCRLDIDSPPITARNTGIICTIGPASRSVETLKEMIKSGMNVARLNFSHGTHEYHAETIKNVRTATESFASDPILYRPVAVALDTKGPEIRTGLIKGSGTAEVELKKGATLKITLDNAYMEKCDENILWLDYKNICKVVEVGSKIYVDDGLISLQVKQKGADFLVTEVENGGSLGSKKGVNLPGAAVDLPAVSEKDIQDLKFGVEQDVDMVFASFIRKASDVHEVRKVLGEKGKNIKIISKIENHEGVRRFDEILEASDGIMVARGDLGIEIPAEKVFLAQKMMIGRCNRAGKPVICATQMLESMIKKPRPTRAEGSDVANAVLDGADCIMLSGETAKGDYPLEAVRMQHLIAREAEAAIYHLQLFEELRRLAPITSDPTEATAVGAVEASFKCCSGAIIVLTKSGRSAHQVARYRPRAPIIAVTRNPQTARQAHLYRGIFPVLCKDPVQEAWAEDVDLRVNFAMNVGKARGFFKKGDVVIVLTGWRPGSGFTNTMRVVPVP
Pyruvate kinase M1 isoform (PKM1), endogenous (P14618-2, form named): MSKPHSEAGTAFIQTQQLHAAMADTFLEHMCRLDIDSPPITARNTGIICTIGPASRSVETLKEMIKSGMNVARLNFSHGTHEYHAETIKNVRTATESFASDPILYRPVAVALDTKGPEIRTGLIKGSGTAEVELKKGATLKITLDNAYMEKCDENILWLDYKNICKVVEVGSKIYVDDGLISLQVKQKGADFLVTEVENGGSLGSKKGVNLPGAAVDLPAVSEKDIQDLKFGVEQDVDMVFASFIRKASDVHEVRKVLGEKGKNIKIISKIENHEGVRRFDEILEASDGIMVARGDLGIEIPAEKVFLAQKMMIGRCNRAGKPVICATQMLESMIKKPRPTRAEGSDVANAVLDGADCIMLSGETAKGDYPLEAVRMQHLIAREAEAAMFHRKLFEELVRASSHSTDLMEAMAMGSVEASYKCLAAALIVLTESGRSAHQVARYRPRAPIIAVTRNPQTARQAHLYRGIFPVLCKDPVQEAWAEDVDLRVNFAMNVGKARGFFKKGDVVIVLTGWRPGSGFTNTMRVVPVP
UniProt P30613: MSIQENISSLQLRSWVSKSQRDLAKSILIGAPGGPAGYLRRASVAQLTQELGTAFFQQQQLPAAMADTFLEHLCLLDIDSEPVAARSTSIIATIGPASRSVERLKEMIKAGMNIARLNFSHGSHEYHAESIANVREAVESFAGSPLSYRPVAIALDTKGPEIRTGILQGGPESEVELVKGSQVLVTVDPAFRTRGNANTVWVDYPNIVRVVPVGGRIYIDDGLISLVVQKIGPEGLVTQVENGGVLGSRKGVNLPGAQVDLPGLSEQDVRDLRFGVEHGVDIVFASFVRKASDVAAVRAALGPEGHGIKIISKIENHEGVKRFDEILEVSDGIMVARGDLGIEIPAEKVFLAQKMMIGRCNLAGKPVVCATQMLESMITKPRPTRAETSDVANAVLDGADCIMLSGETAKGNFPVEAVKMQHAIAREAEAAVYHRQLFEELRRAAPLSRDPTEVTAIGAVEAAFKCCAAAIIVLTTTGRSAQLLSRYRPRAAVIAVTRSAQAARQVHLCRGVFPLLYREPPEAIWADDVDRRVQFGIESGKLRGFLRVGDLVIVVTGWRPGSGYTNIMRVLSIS

Experiment [1] has as its target T1, GST-tagged TSP50 (human) (UniProt Q9UI38).
T1 sequence: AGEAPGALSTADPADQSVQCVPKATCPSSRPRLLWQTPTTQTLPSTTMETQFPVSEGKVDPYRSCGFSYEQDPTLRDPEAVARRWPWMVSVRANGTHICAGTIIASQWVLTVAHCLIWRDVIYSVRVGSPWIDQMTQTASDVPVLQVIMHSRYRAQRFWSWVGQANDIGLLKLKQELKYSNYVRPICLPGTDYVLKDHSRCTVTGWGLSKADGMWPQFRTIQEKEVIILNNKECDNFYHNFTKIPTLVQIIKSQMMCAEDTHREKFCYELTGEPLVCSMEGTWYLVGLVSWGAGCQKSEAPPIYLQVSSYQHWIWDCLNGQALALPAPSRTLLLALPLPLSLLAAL
In words: pull-down; GST-TSP50 as bait on gel suspension, mixed with target protein in GST pull-down binding buffer at 4 °C overnight; Western blot with anti-PKM2 and anti-GST; methods: total protein of Huh7 or Bel7402 cells (RIPA); legend: proteins purified in B21 bacteria; only the target purified. (In general: In western blotting, separated proteins are transferred to a membrane and probed.)

For experiment [2], the target named is T2, Testes-specific protease 50 (TSP50), endogenous (human (endogenous in Huh7 and Bel7402)) (UniProt Q9UI38).
T2 sequence: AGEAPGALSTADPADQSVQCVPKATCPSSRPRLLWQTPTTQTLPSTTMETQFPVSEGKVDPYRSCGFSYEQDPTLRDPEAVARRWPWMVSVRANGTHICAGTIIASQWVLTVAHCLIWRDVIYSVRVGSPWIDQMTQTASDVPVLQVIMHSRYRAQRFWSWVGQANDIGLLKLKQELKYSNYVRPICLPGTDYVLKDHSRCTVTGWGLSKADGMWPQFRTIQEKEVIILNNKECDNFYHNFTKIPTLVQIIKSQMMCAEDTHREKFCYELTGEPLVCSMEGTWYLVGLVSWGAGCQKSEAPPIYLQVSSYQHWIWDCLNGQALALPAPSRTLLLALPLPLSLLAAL
Put plainly: co-IP; Huh7 and Bel7402 cells, immunoprecipitation with anti-TSP50 antibody (Pierce Crosslink Immunoprecipitation kit), Western blot with anti-PKM2, anti-PKM1 or anti-PKLR.

Experiment [3] concerns the target Pyruvate kinase M2 isoform (PKM2), endogenous (human (endogenous in Huh7, Bel7402 and L02)) (UniProt P14618). Put plainly: co-IP; IP with anti-PKM2 from L02 cells (TSP50 overexpressed) and Huh7 and Bel7402 cells (TSP50 knocked down), Western blot for KAT9 and SIRT2.

Results are given in words; binding and its absence hold for the method and conditions named. In cells and extracts the contact can be indirect. Some results given as binding are weak or reduced against the parent protein; the word gives no strength. For some assays here: Sequences can lack the tags named with a protein.

For the molecule “Flag-tagged PKM2 (from UniProt P14618 1-531) (enzyme)”, the binding entry in experiment [1] was “binds”.
“PKL/R, endogenous (from UniProt P30613 1-574) (enzyme)”: in experiment [2], the binding entry is “no binding”.
Same read-out and setting: with “Pyruvate kinase M1 isoform (PKM1), endogenous (from UniProt P14618-2 1-531) (enzyme)” the entry was “no binding”.
Turning to “Pyruvate kinase M2 isoform (PKM2), endogenous (from UniProt P14618 1-531) (enzyme)”, the binding result in experiment [2] is reported as “binds”.

B1: Deacetylase SIRT2, endogenous (enzyme, UniProt Q8IXJ6 1-389)
chain: MAEPDPSHPLETQAGKVQEAQDSDSDSEGGAAGGEADMDFLRNLFSQTLSLGSQKERLLDELTLEGVARYMQSERCRRVICLVGAGISTSAGIPDFRSPSTGLYDNLEKYHLPYPEAIFEISYFKKHPEPFFALAKELYPGQFKPTICHYFMRLLKDKGLLLRCYTQNIDTLERIAGLEQEDLVEAHGTFYTSHCVSASCRHEYPLSWMKEKIFSEVTPKCEDCQSLVKPDIVFFGESLPARFFSCMQSDFLKVDLLLVMGTSLQVQPFASLISKAPLSTPRLLINKEKAGQSDPFLGMIMGLGGGMDFDSKKAYRDVAWLGECDQGCLALAELLGWKKELEDLVRREHASIDAQSGAGVPNPSTSASPKKSPPPAKDEARTTEREKPQ
Regarding B1, in experiment [3], the binding entry was “binds”.
